From publication PMC6406603, “Host-Cell Type Dependent Features of Recombinant Human Aquaporin-4 Orthogonal Arrays of Particles—New Insights for Structural and Functional Studies” (Cells, 2019)

Target: the molecule itself
Test: native gel or EMSA; 2D BN/SDS-PAGE: 3-9% gradient blue native PAGE then 13% SDS-PAGE, AQP4 immunoblot; whole cells lysed in BN buffer (1% DDM, 12 mM NaCl, 500 mM 6-aminohexanoic acid, 20 mM Bis-Tris pH 7.0)

B1: human M23-AQP4 expressed in Sf9 cells (natural protein)
chain: not shown
notes: also called AQP4-M23; Sf9-M23-AQP4; source: Sf9, baculovirus (Bac-to-Bac), in DDM extract of whole cells or of plasma membrane vesicles
stoichiometry N: 4
